Results reported in ChEMBL document CHEMBL1201862, “PubChem BioAssay data set” (2004).
Values joined by “and” are separate entries in the source; they are usually repeats but may differ in a detail not shown here. Identical values can stand only once.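 1) Cells in 96-well plates. 2) Compound, 48 h, 5 concentrations. 3) Linear interpolation between surrounding doses. 4) Unreached endpoint = highest concentration. The concentration for 50% growth inhibition is given as GI50.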 Active and inactive are the calls of the source. Rule as the data show it: active = GI50 up to about 1.1 µM and inactive = higher.

System: NCI-H322M
Assay: NCI anticancer screen, dose series, 48 h

Row | Compound | GI50
1 | COc1cc(-c2oc3c(OC)c(OC)cc(O)c3c(=O)c2OC)ccc1O [TERNATIN] | inactive: 9.84 µM
2 | COC(=O)NC1C(C)OC(OC2C/C=C(/C)C3C=CC4C(OC5CC(OC6CC(O)C(OC7CC(O)C(OC)C(C)O7)C(C)O6)C(O)C(C)O5)C(C)CC(C)C4C3(C)C(=O)C3=C(O)C4(CC(C)C(CO)=CC4/C=C\2C)OC3=O)CC1(C)[N+](=O)[O-] (stereo unspecified) | inactive: 7.48 µM
3 | COc1cc(-c2oc3ccccc3c(=O)c2O)cc(OC)c1OC | inactive: > 100 µM
4 | Cc1c(Cl)cccc1NC(=O)CC1Sc2ccccc2NC1=O (stereo unspecified) | inactive: 27.4 µM and inactive: 33 µM
5 | CCOC(=O)C(C)c1nc2cc(N3CCN(C)CC3)c(F)cc2[nH]c1=O (stereo unspecified) | inactive: > 100 µM
6 | CCOC(=O)C(C)OC(=O)c1ccc(C)cc1 (stereo unspecified) | inactive: > 100 µM
7 | O=[N+]([O-])C(/C=C(\Cl)[N+](=O)[O-])=C(N1CCCCC1)N1CCCCC1 | inactive: 61.9 µM
8 | O=C1OC(C2Cc3ccc4c(c3C2=O)CCCC4)c2ccccc21 (stereo unspecified) | inactive: 45 µM
9 | CCOC(=O)c1cc2c(OC)cc(OC)cc2oc1=O | inactive: > 100 µM
10 | Cc1c2cc[n+](C)cc2c(C)c2c1[nH]c1ccc(O)c(OCC(F)(F)F)c12 | inactive: 1.99 µM
11 | COc1cc2c(c(OC)c1OC)-c1c(cc3c(c1OC)OCO3)CC(C)C(C)(O)C2OC(=O)c1ccccc1 (stereo unspecified) | inactive: 99.5 µM
12 | O=C1c2ccccc2C2(O)Nc3cc(O)ccc3C12O (stereo unspecified) | inactive: > 100 µM
13 | CCOc1ccc(/C=C/c2cc(OC)c(OC)c(OC)c2)cc1 | inactive: 4.91 µM
14 | C[C@]12CC[C@@H]3c4ccc(OCCN5CCCC5)cc4CC[C@H]3[C@@H]1CCC2=O | inactive: > 100 µM
15 | O=C1C[C@@H](c2ccc(O)cc2)[C@@]2(O1)C(=O)O[C@H]([C@@H](O)CO)[C@@H]2O | inactive: > 100 µM
16 | CSCCC(C(=O)O)N(CC1(O)OCC(O)C(O)C1O)N=O (stereo unspecified) | inactive: > 100 µM
17 | COC(=O)C(=O)C(C(=O)C(=O)Nc1ccc([N+](=O)[O-])cc1[N+](=O)[O-])c1nc2ccc([N+](=O)[O-])cc2nc1O (stereo unspecified) | inactive: 29.5 µM
18 | CC(C)/C(Cl)=N/OC(=O)Nc1ccc(F)c(Cl)c1 | inactive: 17.7 µM
19 | CCOC(=O)C(Cc1ccc(OC(=O)OC(C)(C)C)cc1)NC(=O)OC(C)(C)C (stereo unspecified) | inactive: > 100 µM
20 | COc1ccc2c(c1)CCC(CN1CCN(CCOC(c3ccc(F)cc3)c3ccc(F)cc3)CC1)=C2 | inactive: 27.7 µM
21 | Cc1nn(-c2cc(Cl)ccc2[N+](=O)[O-])c(C)c1Cl | inactive: > 100 µM
22 | C=C(OC1C(C)=C2C(C1OC(=O)CCCCCCC)C(C)(OC(C)=O)CC(OC(=O)CCC)C1(O)C2OC(=O)C1(C)O)/C(C)=C/C (stereo unspecified) | active: 0.0125 µM
23 | CC(C)(C)[Si](C)(C)OCC1OC(n2cnc3c(N)ncnc32)C2OC(=S)OC12 (stereo unspecified) | inactive: 54.5 µM

Row | Compound | GI50
24 | Cn1cnc([N+](=O)[O-])c1Sc1nc2ccccc2s1 | inactive: 15.8 µM
25 | COc1ccc(-n2c(=O)c3nc[nH]c3n(-c3ccc(OC)cc3)c2=S)cc1 | inactive: > 100 µM
26 | O=[N+]([O-])c1ccc(O)c(/C=N/NC(=S)N2CCCCC2)c1 | inactive: 1.26 µM
27 | COc1ccc(OC)c2sc(N3C(=O)/C(=C/c4ccc(N(C)C)cc4)N=C3c3ccccc3)nc12 | inactive: > 100 µM
28 | COC1(OC)C2(Cl)C3=CCCC=C3C1(Cl)C(Cl)=C2Cl | inactive: 68.7 µM
29 | O=C(O)c1ccc(N/C(=C(/C(Cl)=C(Cl)Cl)[N+](=O)[O-])n2nnc3ccccc32)cc1 | inactive: > 100 µM
30 | CCOC(=O)C1=c2[nH]c3cccc4cccc(c43)n2C(=O)CC1 | inactive: > 100 µM
31 | CC(C)c1ccc(C2NC(S)=NC3=C2c2ccccc2C3=O)cc1 (stereo unspecified) | inactive: 28.1 µM
32 | CC(=O)/C(=C\c1cccc([N+](=O)[O-])c1)C(=O)Nc1ccccc1C | inactive: > 100 µM
33 | COc1ccc2cccc(C(=N)c3ccc(C)c4c3CCC4)c2c1 | inactive: 11.9 µM
34 | O=C(c1cc2c(C(F)(F)F)onc2c2ccccc12)C(F)(F)F | inactive: 8.15 µM
35 | Cc1ccc(N2C(=O)/C(=C3\Sc4c(nc(C)[nH]c4=O)N3c3ccccc3)SC2=S)cc1 | inactive: > 100 µM
36 | CC(=O)Oc1ccc2oc(=O)cc(C)c2c1 | inactive: > 10 µM
37 | CN(C)/C=N/S(=O)(=O)c1nn2c(C=O)c(-c3ccccc3)nc2s1 | inactive: 24.1 µM
38 | COc1ccc2c(c1)N(C(C)=O)CN1C(=O)CCC21 (stereo unspecified) | inactive: > 100 µM
39 | N#Cc1c(C#N)c(-c2ccco2)n(/N=C/c2ccco2)c1N | inactive: 33.1 µM
40 | c1ccc(C2=C(c3ccccc3)P(c3ccccc3)C2)cc1 (stereo unspecified) | inactive: > 100 µM
41 | C#CCC1(C(=O)OCC)C(=O)c2ccccc2N(C)C1=O (stereo unspecified) | inactive: > 100 µM
42 | CCc1cc(Cc2cc(CC)c(NC(=O)C(=O)Cc3ccccn3)c(CC)c2Cl)c(Cl)c(CC)c1NC(=O)C(=O)Cc1ccccn1 | inactive: > 100 µM
43 | Cc1cc(C)c2c(n1)S(=O)(=O)N(CCCN1CCN(c3cccc(Cl)c3)CC1)C(C(=O)c1ccccc1)=C2O | inactive: 29.6 µM
44 | COc1cccc2c3ccccc3c3nc[nH]c3c12 | inactive: > 64.1 µM
45 | COC(=O)Nc1nc2cc(NC(=O)c3ccc(I)cc3)ccc2[nH]1 | inactive: > 100 µM
46 | O=c1/c(=C/c2ccccc2O)sc2nc3ccccc3n12 | inactive: 76.6 µM

Row | Compound | GI50
47 | CCCCCCCCCCCCCC1CCC(CC)N1 (stereo unspecified) | inactive: 8.38 µM
48 | NC1C/C(=N\O)c2c(Cl)sc(Cl)c21 (stereo unspecified) | inactive: 83.9 µM
49 | c1ccc(COCC2OC3c4ccccc4COC3C2OCc2ccccc2)cc1 (stereo unspecified) | inactive: > 100 µM
50 | CCCCCCCCCCCCCCCC(=O)ON1C(=S)NC(C)(c2ccccc2)C1=S (stereo unspecified) | inactive: > 100 µM
51 | N#Cc1c2c(c(N=P(c3ccccc3)(c3ccccc3)c3ccccc3)n3c1nc1ccccc13)CCCC2 | inactive: 29.7 µM
52 | CCN(C(=O)N[C@H](C(=O)N[C@@H](C)C(=O)OC)C(C)C)c1ccccc1 | inactive: > 100 µM
53 | O=C1C(Br)=CC2([N+](=O)[O-])CCNC3=C(C4=NCCc5c[nH]c(c54)C3=O)C2=C1Br (stereo unspecified) | inactive: 1.16 µM
54 | NS(=O)(=O)c1ccc(NC(=S)N/C=C2\C(=O)Nc3ccccc3C2=O)cc1 | inactive: > 100 µM
55 | CCC1OCCN1C(C)C (stereo unspecified) | inactive: > 100 µM
56 | CCCCCCCCCCCCCCCCOc1ccc(/C=C/C2=[N+](CCCl)CCO2)cc1 | inactive: > 100 µM
57 | O=c1[nH]nc(-c2ccccc2)c2[nH]c3c(c12)CCCc1ccccc1-3 | inactive: 20.4 µM
58 | O=C(NO)c1ccc(O)c(O)c1 | inactive: > 100 µM
59 | CC1(C)CC(=O)C(CCC(=O)/C=C/c2ccccc2)C(=O)C1 | inactive: > 100 µM
60 | CC(=O)NC1=C(NCCN(C)C)C(=O)c2ccccc2C1=O | inactive: 17.7 µM
61 | CN1c2ccc(O)c(O)c2-c2cc(O)cc3c2C1CCC3 (stereo unspecified) | inactive: 33.3 µM
62 | Cc1c(C)c(C)c(-n2[nH]c(=O)n(C)c2=O)c(C)c1C | inactive: > 100 µM
63 | CCCCCCCCCCCCCCCC[N+](C)(C)Cc1ccc(F)cc1 | inactive: 12.4 µM
64 | CCCCC(=O)OC[n+]1ccc2c(C)c3[nH]c4ccc(OC)cc4c3c(C)c2c1 | active: 0.51 µM
65 | CSc1c(C#N)c(S)n(-c2ccc(Cl)cc2)c(=O)c1C#N | inactive: > 100 µM
66 | COc1ccc(-c2nc3cc(F)ccc3s2)cc1O | inactive: 45 µM
67 | c1ccc2c3c([nH]c2c1)C1C2CCCCN2C(c2ccncc2)N1CC3 (stereo unspecified) | inactive: 85.7 µM
68 | CCOC(=O)C(=Cc1[nH]c2ccccc2c1-c1c[nH]c2ccccc12)C(=O)OCC | inactive: 16.5 µM
69 | CC(=O)c1ccc2c(c1)N(CCCN1CCN(CCO)CC1)c1ccccc1C2 | inactive: 17.8 µM

Row | Compound | GI50
70 | Cc1cccc(-c2cc(O)c3cccnc3n2)c1 | active: 0.524 µM
71 | O=C1OS2(OC(=O)c3cccc4cccc2c34)c2ccccc21 (stereo unspecified) | inactive: > 100 µM
72 | O=C1c2cccc3cc([N+](=O)[O-])cc(c23)C(=O)N1CCCN1CCN(CCCN2C(=O)c3cccc4cc([N+](=O)[O-])cc(c34)C2=O)CC1 | active: 0.126 µM
73 | CCOC(=O)c1c(NC(=S)Nc2ccc(C)cc2)sc2c1CCN(C)C2 | inactive: > 100 µM
74 | COC(=O)/C(C#N)=C(/NCCN)Nc1ccccc1 | inactive: > 100 µM
75 | N#C/C(=C\c1ccccc1Br)C(=O)c1ccccc1 | inactive: > 100 µM
76 | O=[N+]([O-])c1ccc(COc2cccc3cccnc23)cc1 | inactive: 24.9 µM
77 | C[N+]1(CCCC[N+]2(C)CCCCCCC2)CCCCCCC1 | inactive: > 100 µM
78 | c1csc(C(NC2=NCCO2)C2CC2)c1 (stereo unspecified) | inactive: > 100 µM
79 | N#Cc1c2c(c(Nc3ccc(Cl)cc3)n3c1nc1ccccc13)CCCC2 | inactive: > 71.8 µM
80 | COC(=O)C1=C(C(=O)OC)SC(=C2SCSC3=C2SC(C(=O)OC)=C(C(=O)OC)C32SC3=C(CCCC3)S2)S1 | inactive: > 100 µM
81 | COc1cc2c(/C=C3/C(=O)Nc4ccc(Cl)cc43)c(Cl)n(Cc3ccccc3)c2cc1C | inactive: 2.15 µM
82 | c1ccc(C2=Nn3c(CCCCCCCCc4nnc5n4N=C(c4ccccc4)CS5)nnc3SC2)cc1 | inactive: > 88.7 µM
83 | Cc1cccc(-c2cc(=O)c3cc(C)c(C)c(C(=O)O)c3o2)c1 | inactive: > 100 µM
84 | CC1=C(C)C(=O)C2=C(OCCCO2)C1=O | inactive: > 100 µM
85 | C=CCc1[nH]c2c(OCc3ccccc3)cc(N(CC=C)C(C)=O)cc2c1C | inactive: 12.3 µM
86 | COc1cc2c(cc1Oc1ccc(OC)c3c1CC1c4c(cc(OC)c(OC)c4-3)CCN1C)CC1c3c(cc(OC)c(OC)c3-2)CCN1C (stereo unspecified) | inactive: 2.01 µM
87 | O=C1CSC(c2ccccc2)N1c1ccc(-n2c(-c3ccccc3)nc3ccccc3c2=O)cc1 (stereo unspecified) | inactive: > 88.1 µM
88 | O=P(c1ccccc1)(c1ccccc1)C1CC=C2CCCCCC2C1 (stereo unspecified) | inactive: 25.3 µM
89 | O=C(C/C(=N\NC(=O)C[n+]1ccccc1)C(=O)Nc1nc2ccc([N+](=O)[O-])cc2s1)CC(c1ccccc1)c1c(O)c2ccccc2oc1=O (stereo unspecified) | inactive: > 100 µM
90 | CC1=C(O)/C(=C/C(C)CCC/C(C)=C/C=C/C(C)CCCc2ccoc2)OC1=O (stereo unspecified) | inactive: 27.2 µM
91 | Cn1c2ccccc2c2cc(N3CCCC3)c3c(c21)C(=O)N(c1ccccc1)C3=O | inactive: > 100 µM
